# Laboratory results reported in the supplement of paper PMC7125110.
# Variants at the floor of the assay are shown more often than the library holds them.
# B1: glmS ribozyme (parent)
# chain: AUAAAAGCGCCAGAACUACAGAAAUGUAGUUGACGAGGAGGAGGUUUAUCGAAUUUUCGGCGGAUGCCUCCAAA
# Columns and labels:
# Details in all cases: with glucosamine-6-phosphate
# glucosamine-6-phosphate [1] = variants of: B1; assay: kcat; higher = faster cleavage; RNA array
# Outline: (§1)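 In situ transcription by E. coli RNA polymerase produced barcoded ribozyme variants on sequenced MiSeq chips, and a hybridised Cy3 probe tracked them at 37 °C. Glucosamine-6-phosphate was flowed in at 40 μM to 10 mM in HEPES/KCl/Mg(OAc)2 buffer. kcat and KM were taken from weighted Michaelis–Menten fits of kobs values from exponential decay fits.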
# glucosamine-6-phosphate [2] = variants of: B1; assay: self-cleavage kobs at 640 uM GlcN6P; higher = faster cleavage; RNA array
# Outline: as §1
# glucosamine-6-phosphate [3] = variants of: B1; assay: self-cleavage kobs at 160 uM GlcN6P; higher = faster cleavage; RNA array
# Outline: as §1
# glucosamine-6-phosphate [4] = variants of: B1; assay: self-cleavage kobs at 10000 uM GlcN6P; higher = faster cleavage; RNA array
# Outline: as §1
# glucosamine-6-phosphate [5] = variants of: B1; assay: self-cleavage kobs at 40 uM GlcN6P; higher = faster cleavage; RNA array
# Outline: as §1
# glucosamine-6-phosphate [6] = variants of: B1; assay: self-cleavage kobs at 2500 uM GlcN6P; higher = faster cleavage; RNA array
# Outline: as §1
Variant,kcat (glucosamine-6-phosphate [1]),self-cleavage kobs at 640 uM GlcN6P (glucosamine-6-phosphate [2]),self-cleavage kobs at 160 uM GlcN6P (glucosamine-6-phosphate [3]),self-cleavage kobs at 10000 uM GlcN6P (glucosamine-6-phosphate [4]),self-cleavage kobs at 40 uM GlcN6P (glucosamine-6-phosphate [5]),self-cleavage kobs at 2500 uM GlcN6P (glucosamine-6-phosphate [6])
AUAAAAGCGCCAGAACUACAGAAAUGUAGUUGACGAGGAGGAGGUUUAUCGAAUUUUCAGCGGAUCCCUCCAAA [G59A G66C],< 1e-05 s⁻¹,–,–,–,–,–
AUAAAAGCGCCAGAACUACAGAAAUGUAGUUGACGAGGAGGAGGUUUAUCGAAUUUUCCGAGGAUGCCUCCAAA [G59C C61A],< 1e-05 s⁻¹,< 1e-05 s⁻¹,< 1e-05 s⁻¹,< 1e-05 s⁻¹,–,–
AUAAAAGCGCCAGAACUACAGAAAUGUAGUUGACGAGGAGGAGGUUUAUCGAAUUUUCGACGGAGGCCUCCAAA [G60A U65G],< 1e-05 s⁻¹,< 1e-05 s⁻¹,–,–,–,–
AUAAAAGCGCCAGAACUACAGAAAUGUAGUUGACGAGGAGGAGGUUUAUCGAAUUUUCGGAAGAUGCCUCCAAA [C61A G62A],< 1e-05 s⁻¹,–,–,–,< 1e-05 s⁻¹,–
AUAAAAGCGCCAGAACUACAGAAAUGUAGUUGACGAGGAGGAGGUUUAUCGAAUUUUCGGGGGAUACCUCCAAA [C61G G66A],< 1e-05 s⁻¹,–,–,–,< 1e-05 s⁻¹,–
AUAAAAGCGCCAGAACUACAGAAAUGUAGUUGACGAGGAGGAGGUUUAUCGAAUUUUCGGUGGAUGCUUCCAAA [C61U C68U],< 1e-05 s⁻¹,–,–,< 1e-05 s⁻¹,–,–
AUAAAAGCGCCAGAACUACAGAAAUGUAGUUGACGAGGAGGAGGUUUAUCGAAUUUUCGGCAGAUGCGUCCAAA [G62A C68G],< 1e-05 s⁻¹,–,–,< 1e-05 s⁻¹,< 1e-05 s⁻¹,–
AUAAAAGCGCCAGAACUACAGAAAUGUAGUUGACGAGGAGGAGGUUUAUCGAAUUUUCGGCCGUUGCCUCCAAA [G62C A64U],< 1e-05 s⁻¹,< 1e-05 s⁻¹,< 1e-05 s⁻¹,< 1e-05 s⁻¹,–,–
AUAAAAGCGCCAGAACUACAGAAAUGUAGUUGACGAGGAGGAGGUUUAUCGAAUUUUCGGCCGAUGCUUCCAAA [G62C C68U],< 1e-05 s⁻¹,–,–,–,–,< 1e-05 s⁻¹
AUAAAAGCGCCAGAACUACAGAAAUGUAGUUGACGAGGAGGAGGUUUAUCGAAUUUUCGGCUGAUGCCUCCAAA [G62U],< 1e-05 s⁻¹,–,< 1e-05 s⁻¹,< 1e-05 s⁻¹,< 1e-05 s⁻¹,–
AUAAAAGCGCCAGAACUACAGAAAUGUAGUUGACGAGGAGGAGGUUUAUCGAAUUUUCGGCGGCUGCCUCAAAA [A64C C71A],< 1e-05 s⁻¹,–,–,–,< 1e-05 s⁻¹,–
AUAAAAGCGCCAGAACUACAGAAAUGUAGUUGACGAGGAGGAGGUUUAUCGAAUUUUCGGCGGCUGCCUCGAAA [A64C C71G],< 1e-05 s⁻¹,–,–,–,–,–
AUAAAAGCGCCAGAACUACAGAAAUGUAGUUGACGAGGAGGAGGUUUAUCGAAUUUUCGGCGGUUGCGUCCAAA [A64U C68G],< 1e-05 s⁻¹,–,–,–,–,–
AUAAAAGCGCCAGAACUACAGAAAUGUAGUUGACGAGGAGGAGGUUUAUCGAAUUUUCGGCGGAUGCGUGCAAA [C68G C70G],< 1e-05 s⁻¹,–,–,–,–,–
AUAAAAGCGCCAGAACUACAGAAAUGUAGUUGACGAGGAGGAGGUUUAUCGAAUUUUCGGCGGAUGCGUCAAAA [C68G C71A],< 1e-05 s⁻¹,–,–,–,< 1e-05 s⁻¹,–
UGGAUCCAUAAAGAACUACAGAAAUGUAGUUGACGAGGAGGAGGUUUAUCGAAUUUUCGGCGGAUGCCUCCAAA [A1U U2G A3G A5U A6C G7C C8A G9U C10A C11A],–,< 1e-05 s⁻¹,< 1e-05 s⁻¹,< 1e-05 s⁻¹,< 1e-05 s⁻¹,< 1e-05 s⁻¹
